# Assay results as given in the supplement of paper PMC8728848.
# Some of the results follow.
# Key:
# Assay in all cases: glycan array binding signal (z-score within array); higher = stronger binding
# Details in all cases: glycan notation: IUPAC condensed, linker removed
# [1] = molecular target: Fuc(a1-2)[GalNAc(a1-3)]Gal(b1-4)Glc
# Method in brief: (§1)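 Arrays were curated from the Consortium for Functional Glycomics database, 3228 in total, and kept only where the protein sequence was available. Binding is expressed as a within-array Z-score. This score was averaged across arrays of the same protein sequence at different concentrations or buffers and across linkers, and negative values can be read as non-binding.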
# [2] = molecular target: Fuc(a1-2)[GalNAc(a1-3)]Gal(b1-4)GlcNAc
# Method in brief: as §1
# [3] = molecular target: Fuc(a1-2)[GalNAc(a1-3)]Gal(b1-4)[Fuc(a1-3)]GlcNAc
# Method in brief: as §1
# [4] = molecular target: Fuc(a1-2)[GalNAc(a1-4)]Gal(b1-4)GlcNAc
# Method in brief: as §1
# [5] = molecular target: Fuc(a1-2)[GalNAc(b1-3)]Gal
# Method in brief: as §1
# Fuc(a1-3)GlcNAc = molecular target: Fuc(a1-3)GlcNAc
# Method in brief: as §1
# [6] = molecular target: Fuc(a1-3)[Gal(b1-4)]Glc6S
# Method in brief: as §1
# [7] = molecular target: Fuc(a1-3)[Gal(b1-4)]GlcNAc
# Method in brief: as §1
# [8] = molecular target: Fuc(a1-3)[Gal(b1-4)]GlcNAc(b1-3)Gal(b1-3)[Fuc(a1-4)]GlcNAc
# Method in brief: as §1
# [9] = molecular target: Fuc(a1-3)[Gal(b1-4)]GlcNAc(b1-4)Gal(b1-4)[Fuc(a1-3)]GlcNAc
# Method in brief: as §1
# [10] = molecular target: Fuc(a1-3)[Gal(b1-4)]GlcNAc(b1-4)Gal(b1-4)[Fuc(a1-3)]GlcNAc(b1-4)Gal(b1-4)[Fuc(a1-3)]GlcNAc
# Method in brief: as §1
# [11] = molecular target: Fuc(a1-3)[Gal(b1-4)]GlcNAc6S
# Method in brief: as §1
# [12] = molecular target: Fuc(a1-3)[Gal3S(b1-4)]Glc6S
# Method in brief: as §1
# [13] = molecular target: Fuc(a1-3)[Gal3S(b1-4)]GlcNAc
# Method in brief: as §1
# [14] = molecular target: Fuc(a1-3)[Gal3S(b1-4)]GlcNAc6S
# Method in brief: as §1
# [15] = molecular target: Fuc(a1-3)[GalNAc(b1-4)]GlcNAc
# Method in brief: as §1
# Fuc(a1-4)GlcNAc = molecular target: Fuc(a1-4)GlcNAc
# Method in brief: as §1
# Fuc(b1-3)GlcNAc = molecular target: Fuc(b1-3)GlcNAc
# Method in brief: as §1
# Gal(a1-2)Gal = molecular target: Gal(a1-2)Gal
# Method in brief: as §1
# Gal(a1-3)Gal = molecular target: Gal(a1-3)Gal
# Method in brief: as §1
# Gal(a1-3)Gal(b1-3)GlcNAc = molecular target: Gal(a1-3)Gal(b1-3)GlcNAc
# Method in brief: as §1
# Gal(a1-3)Gal(b1-4)Glc = molecular target: Gal(a1-3)Gal(b1-4)Glc
# Method in brief: as §1
# Gal(a1-3)Gal(b1-4)GlcNAc = molecular target: Gal(a1-3)Gal(b1-4)GlcNAc
# Method in brief: as §1
# [16] = molecular target: Gal(a1-3)Gal(b1-4)[Fuc(a1-3)]GlcNAc
# Method in brief: as §1
# Gal(a1-3)GalNAc = molecular target: Gal(a1-3)GalNAc
# Method in brief: as §1
# [17] = molecular target: Gal(a1-3)[Gal(a1-4)]Gal(b1-4)GlcNAc
# Method in brief: as §1
# Gal(a1-4)Gal(b1-4)Glc = molecular target: Gal(a1-4)Gal(b1-4)Glc
# Method in brief: as §1
# Gal(a1-4)Gal(b1-4)GlcNAc = molecular target: Gal(a1-4)Gal(b1-4)GlcNAc
# Method in brief: as §1
# Gal(a1-4)GlcNAc = molecular target: Gal(a1-4)GlcNAc
# Method in brief: as §1
# Gal(a1-6)Glc = molecular target: Gal(a1-6)Glc
# Method in brief: as §1
binder,measurement,setting,value
Mannose Binding Protein (Lactobacillus plantarum) (protein) AERSEAALTHVDKDNFLKYFSLNGSATYDAKTGIVTITPNQNNQVGNFSLTSKIDMNKSFTLTGQVNLGSNPNGADGIGFAFHSGNTTDVGNAGGNLGIGGLQDAIGFKLDTWFNSYQAPSSDKNGSEISSTNSNGFGWNGDSANAPYGTFVKTSNQEISTANGSKVQRWWAQDTGESQALSKADIDGNFHDFVVNYDGATRTLTVSYTQASGKVLTWKTTVASSYQAMAMVVSASTGAAKNLQQFKLTSFDFQEAATVNVKYVDTTGHQLAQG,glycan array binding signal (z-score),[1],-0.337
same,glycan array binding signal (z-score),[2],-0.19
same,glycan array binding signal (z-score),[3],0.499
same,glycan array binding signal (z-score),[4],-1.03
same,glycan array binding signal (z-score),[5],0.325
same,glycan array binding signal (z-score),Fuc(a1-3)GlcNAc,-0.141
same,glycan array binding signal (z-score),[6],-0.139
same,glycan array binding signal (z-score),[7],-0.495
same,glycan array binding signal (z-score),[8],0.86
same,glycan array binding signal (z-score),[9],-0.291
same,glycan array binding signal (z-score),[10],-0.071
same,glycan array binding signal (z-score),[11],-0.079
same,glycan array binding signal (z-score),[12],1.28
same,glycan array binding signal (z-score),[13],0.017
same,glycan array binding signal (z-score),[14],-0.14
same,glycan array binding signal (z-score),[15],0.022
same,glycan array binding signal (z-score),Fuc(a1-4)GlcNAc,-0.963
same,glycan array binding signal (z-score),Fuc(b1-3)GlcNAc,-0.271
same,glycan array binding signal (z-score),Gal(a1-2)Gal,-0.205
same,glycan array binding signal (z-score),Gal(a1-3)Gal,-0.442
same,glycan array binding signal (z-score),Gal(a1-3)Gal(b1-3)GlcNAc,-0.569
same,glycan array binding signal (z-score),Gal(a1-3)Gal(b1-4)Glc,13.6
same,glycan array binding signal (z-score),Gal(a1-3)Gal(b1-4)GlcNAc,1.08
same,glycan array binding signal (z-score),[16],0.671
same,glycan array binding signal (z-score),Gal(a1-3)GalNAc,0.219
same,glycan array binding signal (z-score),[17],-0.551
same,glycan array binding signal (z-score),Gal(a1-4)Gal(b1-4)Glc,-0.504
same,glycan array binding signal (z-score),Gal(a1-4)Gal(b1-4)GlcNAc,-0.346
same,glycan array binding signal (z-score),Gal(a1-4)GlcNAc,-0.373
same,glycan array binding signal (z-score),Gal(a1-6)Glc,-0.295
